Consider one protein from article PMC4474922, “Constitutive Activity in an Ancestral Form of Abl Tyrosine Kinase” (PLoS ONE, 2015).

Substrate in the series: Nc1ncnc2c1ncn2[C@@H]1O[C@H](COP(=O)(O)OP(=O)(O)OP(=O)(O)O)[C@@H](O)[C@H]1O
Put plainly: Km (ATP) by continuous spectrophotometric kinase assay. The class given is biochemical, Homo sapiens. Particulars: Mg2+.

B1: human Abl (Homo sapiens) (protein)
chain: MLEICLKLVGCKSKKGLSSSSSCYLEEALQRPVASDFEPQGLSEAARWNSKENLLAGPSE[about 60 residues left out here]LEKHSWYHGPVSRNAAEYLLSSGINGSFLVRESESSPGQRSISLRYEGRVYHYRINTASDGKLYVSSESRFNTLAELVHHHSTVADGLITTLHYPAPKRNKPTVYGVSPNYDKWEMERTDITMKHKLGGGQYGEVYEGVWKKYSLTVAVKTLKEDTMEVEEFLKEAAVMKEIKHPNLVQLLGVCTREPPFYIITEFMTYGNLLDYLRECNRQEVNAVVLLYMATQISSAMEYLEKKNFIHRDLAARNCLVGENHLVKVADFGLSRLMTGDTYTAHAGAKFPIKWTAPESLAYNKFSIKSDVWAFGVLLWEIATYGMSPYPGIDLSQVYELLEKDYRMERPEGCPEKVYELMRACWQWNPSDRPSFAEIHQAFETMFQESSISDEVEKELGKQGVRGAVSTLLQAPELPTKTRTSRRAAEHRDTTDVPEMPHSKGQGESDPLDHEPAVSPLLPRKERGPPEGGLNEDERLLPKDKKTNLFSALIKKKKKTAPTPPKRSSSFREMDGQPERRGAGEEEGRDISNGALAFTPLDTADPAKSPKPSNGAGVPNGALRESGGSGFRSPHLWKKSSTLTSSRLATGEEEGGGSSSKRFLRSCSASCVPHGAKDTEWRSVTLPRDLQSTGRQFDSSTFGGHKSEKPALPRKRAGENRSDQVTRGTVTPPPRLVKKNEEAADEVFKDIMESSPGSSPPNLTPKPLRRQVTVAPASGLPHKEEAGKGSALGTPAAAEPVTPTSKAGSGAPGGTSKGPAEESRVRRHKHSSESPGRDKGKLSRLKPAPPPPPAASAGKAGGKPSQSPSQEAAGEAVLGAKTKATSLVDAVNSDAAKPSQPGEGLKKPVLPATPKPQSAKPSGTPISPAPVPSTLPSASSALAGDQPSSTAFIPLISTRVSLRKTRQPPERIASGAITKGVVLDSTEALCLAISRNSEQMASHSAVLEAGKNLYTFCVSYVDSIQQMRNKFAFREAINKLENNLRELQICPATAGSGPAATQDFSKLLSSVKEISDIVQR
For B1, the Michaelis-Menten constant (Km) stood at 32 µM.
